Test in all cases: Primary Screen for Target Class Profiling of Small Molecule Inhibitors of Methyltransferases
Experiment [1] addresses Glycine N-methyltransferase (Homo sapiens) (UniProt Q14749). Conditions: purified enzyme, MTase-Glo SAH luminescence; measured here: GNMT inhibition; at 40 µM; stronger effect = lower value. Put shortly:
(§1)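 Each enzyme was reacted with SAM and its substrate, with compounds tested once at 40 uM; SAH formed was read by MTase-Glo luminescence.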

For experiment [2], the target named is Guanidinoacetate N-methyltransferase (Homo sapiens) (UniProt Q14353). Conditions: purified enzyme, MTase-Glo SAH luminescence; measured here: GAMT inhibition; at 40 µM; stronger effect = lower value. Put shortly:
as §1

Experiment [3] deals with Histamine N-methyltransferase (Homo sapiens) (UniProt P50135). Conditions: purified enzyme, MTase-Glo SAH luminescence; measured here: HNMT inhibition; at 40 µM; stronger effect = lower value. The essentials:
as §1

Experiment [4] deals with Nicotinamide N-methyltransferase (Homo sapiens) (UniProt P40261). Conditions: purified enzyme, MTase-Glo SAH luminescence; measured here: NNMT inhibition; at 40 µM; stronger effect = lower value. The essentials: as §1
In experiment [5] the target is Phenylethanolamine N-methyltransferase (Homo sapiens) (UniProt P11086). Conditions: purified enzyme, MTase-Glo SAH luminescence; measured here: PNMT inhibition; at 40 µM; stronger effect = lower value. The essentials: as §1

This is one part of the list. These are further read-outs of the screen, such as a control signal, another cell line or another target. No call is given for them.
On the % scale 0 is the no-effect control and ±100 the full control effect.

As to `CC1(C(=O)NC2CCCCC2)Cn2c(cc3sccc32)C(=O)N1Cc1ccc(Cl)cc1` (stereo not given), the activity change, negative = inhibition in experiment [1] is -13.2%; in experiment [2], -0.467%; in experiment [3], -6.24%; in experiment [4], -7.77%; in experiment [5], -5.42%.

For `CC(C)OCCCNc1nc2c(S(=O)(=O)c3ccccc3)nnn2c2ccccc12`, the activity change, negative = inhibition in experiment [1] was -5.22%; in experiment [2] it was 2.75%; in experiment [3], -3.45%; in experiment [4] it was 0.536%; in experiment [5], -8.05%.

Turning to `NC[C@@H]1O[C@H](C23CC4CC(CC(C4)C2)C3)Cc2c1ccc(O)c2O`, the activity change, negative = inhibition in experiment [1] was -10.9%; in experiment [2] it was 12.4%; in experiment [3], -7.44%; in experiment [4], -12.1%; in experiment [5], 4.31%.

In the case of `Cc1cc2nn(CC(=O)Nc3cccc(Cl)c3)c(=O)n2c(Nc2ccc(F)cc2)n1`, the activity change, negative = inhibition in experiment [1] was 2.79%; in experiment [2], 2.56%; in experiment [3], -3.39%; in experiment [4], -2.14%; in experiment [5] it was -1.19%.

In the case of `COCCNc1nc2c(S(=O)(=O)c3c(C)cc(C)cc3C)nnn2c2ccccc12`, the activity change, negative = inhibition in experiment [1] is -2.89%; in experiment [2] it was 0.645%; in experiment [3], 7.5%; in experiment [4], 2.76%; in experiment [5] it was -2.16%.

Take `Cc1ccccc1CNC(=O)c1ccc2c(c1)C(O)CCCCCN2C` (stereo not given): the activity change, negative = inhibition was -5.5% in experiment [1]; -2.45% in experiment [2]; -6.64% in experiment [3]; -13.9% in experiment [4]; 9.95% in experiment [5].

Turning to `CC(C(=O)NCc1cccc(Cl)c1)n1ccc2cc(S(=O)(=O)N3CCCCC3)ccc21` (stereo not given), the activity change, negative = inhibition in experiment [1] was -6.68%; in experiment [2], -1.73%; in experiment [3], -5.03%; in experiment [4] it was -7.05%; in experiment [5], -5.94%.

In the case of `CC(C)OCCCNC(=O)c1cc2n(n1)CC(C)(C(=O)NC1CCCC1)N(C)C2=O` (stereo not given), the activity change, negative = inhibition in experiment [1] is 3.71%; in experiment [2], 3.11%; in experiment [3], -7.67%; in experiment [4], 4.28%; in experiment [5], -5.09%.

Regarding `O=C(Cn1ccc2cc(S(=O)(=O)N3CCCCC3)ccc21)N1CCN(c2ccccc2)CC1`, the activity change, negative = inhibition in experiment [1] was -1.46%; in experiment [2], 5.46%; in experiment [3], 1.58%; in experiment [4], -10.3%; in experiment [5], -2.16%.

`COc1cc(C(O)CO)ccc1O` (stereo not given): the activity change, negative = inhibition in experiment [1] is 10%; in experiment [2], 11.5%; in experiment [3] it was 11.9%; in experiment [4], -9.38%; in experiment [5] it was -2.69%.

As for `CCOc1ccc(CC(=O)N2CCC[C@H]2c2nc(-c3ccc(OC)cc3)no2)cc1`, the activity change, negative = inhibition in experiment [1] is -8.25%; in experiment [2], -5.7%; in experiment [3] it was -4.59%; in experiment [4], -10.8%; in experiment [5], 3.19%.

Take `C[C@H]1C[C@H]2[C@@H]3CCC4=CC(=O)C=C[C@]4(C)[C@@]3(F)[C@@H](O)C[C@]2(C)[C@@]1(O)C(=O)COP(=O)(O)O`: the activity change, negative = inhibition in experiment [1] is 6.29%; in experiment [2] it was 8%; in experiment [3], 10.7%; in experiment [4] it was -4.97%; in experiment [5] it was 7.98%.

On to `O=C(NC1CCCC1)C1c2ccccc2C(=O)N(C2CCCC2)C12CCCCC2` (stereo not given), for which the activity change, negative = inhibition in experiment [1] is -2.8%; in experiment [2], 0.306%; in experiment [3] it was -0.425%; in experiment [4], -9.96%; in experiment [5], -0.59%.

For the molecule `CC(C/C=C/C(C)(C)O)C1CCC(C)(O)C(O)C1` (stereo not given), the activity change, negative = inhibition was 4.91% in experiment [1]; 5.5% in experiment [2]; 4.74% in experiment [3]; -7.9% in experiment [4]; 1.29% in experiment [5].

For the molecule `CCOc1ccccc1CN1C(=O)c2cc(-c3ccco3)nn2CC1(C)C(=O)NC1CCCCC1` (stereo not given), the activity change, negative = inhibition in experiment [1] is -0.701%; in experiment [2] it was 1.55%; in experiment [3], 8.72%; in experiment [4] it was 5.11%; in experiment [5] it was -0.432%.

Take `COc1ccc(Cn2c(=O)c3ccccc3n3c(-c4ccc(O)cc4)nnc23)cc1`: the activity change, negative = inhibition in experiment [1] was -4.46%; in experiment [2] it was 0.891%; in experiment [3], 5.29%; in experiment [4], -0.699%; in experiment [5], 0.962%.

With `C=CCn1c(=O)c2ccc(C(=O)NC(C)C)cc2n2c(=O)n(CC(=O)Nc3ccc(C)c(F)c3)nc12`, the activity change, negative = inhibition in experiment [1] is 8.29%; in experiment [2], 1.01%; in experiment [3], 7.62%; in experiment [4] it was 5.88%; in experiment [5], 0.929%.

Turning to `CCOC(=O)C1CCN(C(=O)CNS(=O)(=O)c2ccc3nc(C)sc3c2)CC1`, the activity change, negative = inhibition in experiment [1] is 2.73%; in experiment [2], -3.99%; in experiment [3] it was 6.94%; in experiment [4], 9.19%; in experiment [5], 2.25%.

Take `COCCN1CCC(CN(Cc2ccncc2)C(=O)C2CC23CCCC3)CC1` (stereo not given): the activity change, negative = inhibition in experiment [1] was -6.07%; in experiment [2], -7.38%; in experiment [3], -4.87%; in experiment [4], -14.5%; in experiment [5] it was 2.96%.

Consider `CCCn1c(=O)c2cc(Cl)ccc2n2c(=O)n(Cc3cccc(Cl)c3)nc12`, for which the activity change, negative = inhibition in experiment [1] is 1.74%; in experiment [2] it was 3.46%; in experiment [3] it was 6.07%; in experiment [4], -0.726%; in experiment [5], -1.17%.

Regarding `Cc1ccc(NC(=O)Cn2nc3n(CCC(C)C)c(=O)c4ccc(C(=O)NC(C)C)cc4n3c2=O)cc1C`, the activity change, negative = inhibition in experiment [1] came out at 10.4%; in experiment [2], 1.14%; in experiment [3], 9.28%; in experiment [4], 6.86%; in experiment [5] it was 4.21%.

In the case of `C=C(COC(=O)C(C)C)C1Oc2cc(C(C)=O)ccc2C1OC(=O)C(C)C` (stereo not given), the activity change, negative = inhibition is 1.69% in experiment [1]; 3.38% in experiment [2]; 9.08% in experiment [3]; -8.66% in experiment [4]; -4.38% in experiment [5].

As to `CC(=O)NC1(C)CCN(Cc2ccc(-c3ccc([S+](C)(=O)[O-])cc3)cc2)C1` (stereo not given), the activity change, negative = inhibition is -5.12% in experiment [1]; 1.91% in experiment [2]; -23.1% in experiment [3]; -2.08% in experiment [4]; -6.09% in experiment [5].

In the case of `COCc1ccc2c(c1)c(OC(C)(C)C(=O)N1CCN(C)CC1)nn2CCC(C)C`, the activity change, negative = inhibition in experiment [1] is -4.91%; in experiment [2], -3.69%; in experiment [3], -2.25%; in experiment [4], -11.7%; in experiment [5], 2.43%.

`c1ccc(CC2=NOC3(CCN(Cc4c[nH]c5ccccc45)CC3)C2)cc1`: the activity change, negative = inhibition in experiment [1] was -4.33%; in experiment [2], 2.12%; in experiment [3], -27.1%; in experiment [4], -10.1%; in experiment [5], -38.5%.

Turning to `COC(=O)c1cc2n(n1)CC(C)(C(=O)NC1CCCCC1)N(c1ccc(F)cc1)C2=O` (stereo not given), the activity change, negative = inhibition in experiment [1] came to 3.93%; in experiment [2] it was 0%; in experiment [3] it was 9.99%; in experiment [4], 4.38%; in experiment [5], 2.34%.

On to `COc1ccc(CNC(=O)Cn2ccc3cc(S(=O)(=O)N4CCCCC4)ccc32)cc1`, for which the activity change, negative = inhibition stood at 4.83% in experiment [1]; 1.19% in experiment [2]; 5.02% in experiment [3]; 2.34% in experiment [4]; 4.25% in experiment [5].

Consider `O=C(CCCc1nnc2n3nc(-c4ccccc4)nc3c3ccccc3n12)NCc1ccccc1`, for which the activity change, negative = inhibition is -7.34% in experiment [1]; -2.23% in experiment [2]; -6.51% in experiment [3]; -6.47% in experiment [4]; -11.2% in experiment [5].

With `OCC1OC(Oc2cc(O)c3c(c2)OC(c2ccc(O)cc2)C(O)C3)C(O)C1O` (stereo not given), the activity change, negative = inhibition was -0.557% in experiment [1]; -4.76% in experiment [2]; 1.46% in experiment [3]; -13.8% in experiment [4]; 1.54% in experiment [5].

As for `CCOC(=O)c1cc2n(n1)CC(C)(C(=O)NC1CCCCCC1)N(c1ccccc1CC)C2=O` (stereo not given), the activity change, negative = inhibition in experiment [1] was 7.46%; in experiment [2], 0%; in experiment [3] it was -2.2%; in experiment [4], 8.88%; in experiment [5], 6.46%.

Source of the values: PubChem BioAssay AID1745853 (National Center for Advancing Translational Sciences (NCATS), 2022).
